The source of these data is article PMC4336329 (PLoS ONE, 2015).

Among all 310,000 compounds or so, about 14,000 (4.5%) showed an effect of 50% or more. Effects have a minus sign here. The list shows a part of the results.
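Further: peak tail current of the secondary pulse compared with the same well before compound.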

This experiment deals with human ether-à-go-go-related gene (hERG) potassium channel (human, UniProt Q12809). In words: primary screen, population patch clamp on CHO cells stably expressing hERG.
Sequence of human ether-à-go-go-related gene (hERG) potassium channel (Q12809 whole entry, looked up): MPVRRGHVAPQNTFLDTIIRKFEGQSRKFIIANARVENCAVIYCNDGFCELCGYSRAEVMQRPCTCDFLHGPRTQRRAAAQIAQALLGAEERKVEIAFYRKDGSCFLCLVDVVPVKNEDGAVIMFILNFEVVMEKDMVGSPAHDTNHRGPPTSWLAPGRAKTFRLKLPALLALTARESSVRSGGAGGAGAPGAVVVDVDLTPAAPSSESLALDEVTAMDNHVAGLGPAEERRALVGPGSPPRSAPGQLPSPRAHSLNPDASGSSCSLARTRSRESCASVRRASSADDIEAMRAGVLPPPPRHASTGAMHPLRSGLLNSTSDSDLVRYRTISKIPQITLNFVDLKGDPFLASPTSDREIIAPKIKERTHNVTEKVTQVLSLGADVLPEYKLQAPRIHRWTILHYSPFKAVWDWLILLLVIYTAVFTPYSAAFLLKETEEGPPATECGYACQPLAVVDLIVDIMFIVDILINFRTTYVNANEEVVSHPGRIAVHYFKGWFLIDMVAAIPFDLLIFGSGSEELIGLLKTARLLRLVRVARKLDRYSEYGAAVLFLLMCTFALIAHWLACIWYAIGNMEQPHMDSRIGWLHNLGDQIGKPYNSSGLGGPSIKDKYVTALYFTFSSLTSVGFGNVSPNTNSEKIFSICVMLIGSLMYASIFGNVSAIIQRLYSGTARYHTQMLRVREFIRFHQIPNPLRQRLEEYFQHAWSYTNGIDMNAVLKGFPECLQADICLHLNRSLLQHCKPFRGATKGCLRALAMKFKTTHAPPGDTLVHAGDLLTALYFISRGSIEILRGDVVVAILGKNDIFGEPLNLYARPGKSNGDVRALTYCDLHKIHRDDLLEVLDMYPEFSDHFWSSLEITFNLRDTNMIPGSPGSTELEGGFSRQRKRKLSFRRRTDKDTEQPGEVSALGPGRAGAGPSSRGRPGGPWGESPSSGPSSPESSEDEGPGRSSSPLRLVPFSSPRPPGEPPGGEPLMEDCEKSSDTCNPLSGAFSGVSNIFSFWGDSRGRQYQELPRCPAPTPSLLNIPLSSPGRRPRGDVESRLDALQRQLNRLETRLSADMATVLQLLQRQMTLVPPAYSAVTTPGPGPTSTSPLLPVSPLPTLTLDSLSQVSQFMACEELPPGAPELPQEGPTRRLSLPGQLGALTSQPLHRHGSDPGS
In the case of `NC(=O)c1ccc(NC(=O)COC(=O)c2ccc(Cl)nc2)cc1`, the “hERG current change (%, negative = inhibition) at 10uM” value is 2.17%.
With `CCN(CC)S(=O)(=O)c1ccc(OC)c(NC(=O)c2cc3c(=O)n4ccccc4nc3s2)c1`, the “hERG current change (%, negative = inhibition) at 10uM” value came to 5.02%.
As for `O=C(NCCCn1ccnc1)c1csc2ccccc12`, the “hERG current change (%, negative = inhibition) at 10uM” value is listed as -14.3%.
Regarding `O=C(c1ccco1)C(O)c1ccco1` (centres unmarked), the “hERG current change (%, negative = inhibition) at 10uM” value was determined as 25.4%.
As to `CCCS(=O)(=O)N1CCN(Cc2ccccc2OCC)CC1`, the “hERG current change (%, negative = inhibition) at 10uM” value is -10.8%.
`Cc1cc(C(=O)OCC(=O)Nc2ccc(F)c(F)c2F)c(C)o1`: the “hERG current change (%, negative = inhibition) at 10uM” value came to 19.9%.
Consider `O=C(NCCCNc1ccc([N+](=O)[O-])cc1)C(F)(F)F`, for which the “hERG current change (%, negative = inhibition) at 10uM” value is given as -8.32%.
As to `O=C(COc1ccc(F)cc1)N1CCC(Cc2ccccc2)CC1`, the “hERG current change (%, negative = inhibition) at 10uM” value is listed as -19.5%.
Turning to `CN(CC(=O)Nc1ccc(F)cc1)C(=O)COC(=O)c1cc([N+](=O)[O-])ccc1N1CCOCC1`, the “hERG current change (%, negative = inhibition) at 10uM” value is -64.3%.
For `O=C(CSc1nc2c([nH]c3ccccc32)c(=O)n1-c1ccccc1)NCC1CCCO1` (centres unmarked), the “hERG current change (%, negative = inhibition) at 10uM” value is on record as 3.52%.
For `C/C=C(/C)C(=O)OC(C)(C)[C@@H]1Cc2c(ccc3ccc(=O)oc23)O1`, the “hERG current change (%, negative = inhibition) at 10uM” value is given as -0.947%.
For the compound `COc1cccc(CNC(=O)c2n[nH]c3ccccc23)c1`, the “hERG current change (%, negative = inhibition) at 10uM” value came to 14%.
Consider `C/C(=N\NC(=O)CNc1cccc(Cl)c1C)c1cccs1`, for which the “hERG current change (%, negative = inhibition) at 10uM” value was 10.4%.
To `CC1CCCCC1NC(=O)CN1CCN(S(=O)(=O)c2ccc(Br)s2)CC1` (centres unmarked) belongs 14.3%; to `CS(=O)(=O)N1CCc2cc(-c3csc(NCC4CCCO4)n3)ccc21` (centres unmarked), -7.28%.
The value for `Cc1cc(C)c(SCCc2ccncc2)c(C)c1` was 0.142%.
Turning to `CC(=O)c1cccc(NC(=O)CSc2nnc(C(C)N(C)C)n2Cc2ccccc2)c1` (centres unmarked), the “hERG current change (%, negative = inhibition) at 10uM” value is recorded as -20.1%.
As to `Cc1nc([N+](=O)[O-])cn1CC(=O)c1ccccc1`, the “hERG current change (%, negative = inhibition) at 10uM” value is 8.41%.
For the compound `Cc1ccc(NC(=O)Nc2ccc(F)cc2)cc1Cl`, the “hERG current change (%, negative = inhibition) at 10uM” value was found to be 16.3%.
Turning to `CC(=O)c1cccc(N(CC(=O)NC2CCCCC2)C(=O)Cn2nnc(-c3ccccc3)n2)c1`, the “hERG current change (%, negative = inhibition) at 10uM” value is -2.86%.
With `COc1cccc(NC(=O)Nc2nc(-c3ccc(OC)c(OC)c3)cs2)c1`, the “hERG current change (%, negative = inhibition) at 10uM” value is -0.837%.
Regarding `COc1ccccc1NC(=S)NNC(=O)c1ccc(Cl)cc1Cl`, the “hERG current change (%, negative = inhibition) at 10uM” value was 12.4%.
For the compound `Cc1c(NC(=O)C(C)Oc2ccc(Br)cc2Cl)c(=O)n(-c2ccccc2)n1C` (centres unmarked), the “hERG current change (%, negative = inhibition) at 10uM” value is recorded as -49.7%.
As for `CCCC(C)C(=O)OCC(=O)Nc1ccc(Br)cc1` (centres unmarked), the “hERG current change (%, negative = inhibition) at 10uM” value stood at 13.3%.
Turning to `CC(/C=N/NC(=O)c1cccc([N+](=O)[O-])c1)=C\c1ccccc1`, the “hERG current change (%, negative = inhibition) at 10uM” value is given as -6.67%.
For the compound `COc1cc(C(Nc2ccccn2)c2c(NC(=O)c3ccco3)sc(C)c2C)cc(OC)c1OC` (centres unmarked), the “hERG current change (%, negative = inhibition) at 10uM” value is -3.1%.
For `CCOC(=O)Cc1csc(NC(=O)c2ccc(Br)s2)n1`, the “hERG current change (%, negative = inhibition) at 10uM” value is reported as -11.5%.
To `CC(C)(C)c1ccc(C(=O)NCC(=O)N/N=C/c2ccccc2OCC(=O)O)cc1` belongs 6.91%; to `CC(C)c1nc(C(=O)N2CCCC(CCC(=O)N(C)CCc3ccccn3)C2)cs1` (centres unmarked), 8.87%; to `Cc1ccc(CSc2nc3c(c(N(C)C)n2)CCCC3)cc1`, -5.63%.
To `Fc1ccc(N2CCN(c3ccc4c(C(F)(F)F)cc(C(F)(F)F)nc4n3)CC2)cc1` belongs -18.5%; to `Cc1cccc(NC(=O)CSc2nnc(-c3cc(C)[nH]n3)n2N)c1`, -29.1%.
`COc1ccccc1C(=O)NCCC(=O)Nc1ccncc1`: the “hERG current change (%, negative = inhibition) at 10uM” value turned out to be 4.24%.
With `Cc1ccc(C(=O)N2CC(C)CC(C)C2)cc1S(=O)(=O)N1CCCCC1` (centres unmarked), the “hERG current change (%, negative = inhibition) at 10uM” value is given as -30.2%.
On to `O=c1c(-c2ccccc2)n[nH]c2ccccc12`, for which the “hERG current change (%, negative = inhibition) at 10uM” value was -1.62%.
For the compound `COc1ccc(NC(=S)N(CCN2CCOCC2)C2CCN(C(C)=O)CC2)cc1Cl`, the “hERG current change (%, negative = inhibition) at 10uM” value is recorded as 3.21%.
Turning to `Cc1ccc(-c2nnc(N3CCOCC3)c3ccccc23)cc1S(N)(=O)=O`, the “hERG current change (%, negative = inhibition) at 10uM” value is recorded as 17.3%.
In the case of `O=C(NCc1cccnc1)c1ccccc1[N+](=O)[O-]`, the “hERG current change (%, negative = inhibition) at 10uM” value is recorded as 12.6%.
As for `Fc1ccccc1/C=N/Nc1nn[nH]n1`, the “hERG current change (%, negative = inhibition) at 10uM” value is recorded as 13%.
Take `O=C(CSc1cccc2cccnc12)OCC(=O)c1ccccc1`: the “hERG current change (%, negative = inhibition) at 10uM” value is listed as 8.7%.
To `CC1=CC2=NC(=O)/C(=C/c3cccs3)C(=N)N2O1` belongs 19.7%; to `COc1ccc(NC(=O)c2cccs2)cn1`, 11.1%.
In the case of `N#C/C(=C\c1ccc(O)cc1)c1nc2ccccc2o1`, the “hERG current change (%, negative = inhibition) at 10uM” value worked out at 1.18%.
For `CC1=NN(c2ccccc2)C(=O)/C1=C\C=C\c1ccccc1`, the “hERG current change (%, negative = inhibition) at 10uM” value is 4.84%.
For `Cc1nn(-c2ccccc2)c(Cl)c1C(=O)NCC(C)C`, the “hERG current change (%, negative = inhibition) at 10uM” value is -5.02%.
Regarding `COc1ccccc1CCN=C(N)NS(=O)(=O)c1cccs1`, the “hERG current change (%, negative = inhibition) at 10uM” value is reported as 12.5%.
As to `CCOc1cc2c3c(c1)C(C)=CC(C)(C)N3C(=O)C2=O`, the “hERG current change (%, negative = inhibition) at 10uM” value was 21.7%.
Consider `CCCCC(=O)N(c1ccc(OCC)cc1)C1C=CS(=O)(=O)C1` (centres unmarked), for which the “hERG current change (%, negative = inhibition) at 10uM” value turned out to be 6.86%.
For `CCN(CC)S(=O)(=O)c1ccc(Cl)c(NC2=NCCCCC2)c1`, the “hERG current change (%, negative = inhibition) at 10uM” value is on record as -1.64%.
To `Cc1nc2ccccc2n1C(=O)c1ccc(Cl)cc1[N+](=O)[O-]` belongs -4.4%; to `COCCOC(=O)c1c(N)n(Cc2ccc(OC)cc2)c2nc3ccccc3nc12`, -75.4%.
For `CCOc1ccc(NC(=O)Nc2cccnc2)cc1`, the “hERG current change (%, negative = inhibition) at 10uM” value is on record as -23.3%.
For the compound `Cc1cc(C(=O)Nc2nnc(C3CCCCC3)s2)cs1`, the “hERG current change (%, negative = inhibition) at 10uM” value is reported as -5.46%.
With `COc1ccc(N2C3=[N+](CC2(C)O)c2ccccc2CC3)cc1.[Br-]` (centres unmarked), the “hERG current change (%, negative = inhibition) at 10uM” value was -44.3%.
To `CC1(C)CCCN(C(=O)N2c3ccccc3Sc3ccccc32)C1` belongs 9.06%; to `Nc1cc(S(=O)(=O)Nc2ccc(Cl)cc2)ccc1N1CCOCC1`, 5.33%; to `CCC(=O)c1ccccc1OCCCCn1cncn1.O=C(O)C(=O)O`, 4.82%.
With `CCn1cc(C2=NOC(C(=O)Nc3ccc4c(c3)OCO4)C2)c(C)n1` (centres unmarked), the “hERG current change (%, negative = inhibition) at 10uM” value is reported as 10.5%.
For `NNC(=O)CSCc1nc(-c2ccccc2)cs1`, the “hERG current change (%, negative = inhibition) at 10uM” value turned out to be 6.08%.
